Results on 24 compounds are retold here after the supplement of paper PMC4604168 (melanoma cell lines).

Among the test systems are WM115; WM1716; WM1745; WM3526; WM3619; WM451Lu.
Holding throughout (experiment): cell count relative to DMSO control; melanoma cells; higher = more viable cells
Details in all cases: library dose: low library concentration; 72 h

Some of the results follow. Many values rest on one well or one pass, so single values are uncertain.
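Further: cell number obtained by counting DAPI-stained nuclei in high-throughput microscope images with image analysis software, screen run in 1,536-well plates.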

`Cn1cc(C2=C(c3cn(C4CCN(Cc5ccccn5)CC4)c4ccccc34)C(=O)NC2=O)c2ccccc21` [Enzastaurin] + NCC(=O)Nc1ccc(-n2nc(C(F)(F)F)cc2-c2ccc3c(ccc4ccccc43)c2)cc1 [OSU03012] (first compound 0.8 µM, partner dose 1 µM): the cell count with WM115 came to 86%; in the test with WM1716, 85.9%; in the test on WM1745, 87.9%; with WM3526 it was 64.3%; in the test with WM3619, 106%; with WM451Lu, 61.5%.

For `C[As](C)SC[C@H](NC(=O)CC[C@H](N)C(=O)O)C(=O)NCC(=O)O` [Darinaparsin] + O=S(=O)(c1ccccc1)N(CC(F)(F)F)c1ccc(C(O)(C(F)(F)F)C(F)(F)F)cc1 [T0901317] (first compound 0.4 µM, partner dose 1.4 µM), the cell count was found to be 93.6% with WM115; 90.4% in the test with WM1716; 84.3% in the test with WM1745; 89.7% with WM3526; 104% with WM3619; 105% with WM451Lu.

Consider `Cn1cc(C2=C(c3cn(C4CCN(Cc5ccccn5)CC4)c4ccccc34)C(=O)NC2=O)c2ccccc21` [Enzastaurin] + CCc1ccc(CCOc2ccc(CC3SC(=O)NC3=O)cc2)nc1 [pioglitazone] (first compound 0.8 µM, partner dose 2 µM), for which the cell count with WM115 is 122%; in the test on WM1716, 114%; in the test on WM1745, 85.9%; with WM3526, 110%; in the test on WM3619, 86.5%; in the test on WM451Lu it was 111%.

On to `N.N.[Cl][Pt][Cl]` [cisplatin] + Cn1nnc2c(C(N)=O)ncn2c1=O [temozolomide] (first compound 1.6 µM, partner dose 2 µM), for which the cell count in the test on WM115 stood at 102%; with WM1716 it was 94.1%; in the test on WM1745, 99.2%; in the test on WM3526, 118%; in the test with WM3619, 87.1%; in the test with WM451Lu, 103%.

On to `N.N.[Cl][Pt][Cl]` [cisplatin] + Clc1ccc(Nc2nnc(Cc3ccncc3)c3ccccc23)cc1 [vatalanib] (first compound 1.6 µM, partner dose 2 µM), for which the cell count in the test with WM115 worked out at 107%; in the test with WM1716, 109%; in the test on WM1745, 92.4%; in the test with WM3526, 102%; in the test on WM3619 it was 77.9%; in the test with WM451Lu, 90.9%.

For the compound `Cn1cc(C2=C(c3cn(C4CCN(Cc5ccccn5)CC4)c4ccccc34)C(=O)NC2=O)c2ccccc21` [Enzastaurin] + NC(=O)c1ccc(N(C(N)=O)c2c(F)cccc2F)nc1-c1ccc(F)cc1F [VX702] (first compound 0.8 µM, partner dose 0.4 µM), the cell count in the test on WM115 came out at 108%; with WM1716, 100%; in the test on WM1745, 89.4%; in the test with WM3526, 88.4%; with WM3619 it was 104%; with WM451Lu, 140%.

Take `N.N.[Cl][Pt][Cl]` [cisplatin] + NC(=O)Nc1cc(-c2cccc(F)c2)sc1C(=O)N[C@H]1CCCNC1 [AZD7762] (first compound 1.6 µM, partner dose 0.02 µM): the cell count in the test on WM115 amounted to 90.3%; in the test on WM1716, 87.6%; in the test on WM1745, 99.3%; with WM3526 it was 91.2%; with WM3619 it was 93%; in the test with WM451Lu it was 84.2%.

Consider `N.N.[Cl][Pt][Cl]` [cisplatin] + OCc1c[nH]c2ccccc12 [Indole-3-carbinol] (first compound 1.6 µM, partner dose 0.8 µM), for which the cell count in the test with WM115 turned out to be 107%; in the test on WM1716 it was 98.1%; with WM1745, 105%; in the test with WM3526, 94.8%; in the test on WM3619, 93.1%; in the test with WM451Lu, 92.6%.

Regarding `C[C@]12O[C@H](C[C@]1(O)CO)n1c3ccccc3c3c4c(c5c6ccccc6n2c5c31)CNC4=O` [Lestaurtinib] + CCCCCCCCc1ccc(CCC(N)(CO)CO)cc1 [fingolimod] (first compound 0.004 µM, partner dose 2 µM), the cell count in the test on WM115 was found to be 85.7%; in the test with WM1716 it was 99.5%; in the test with WM1745, 82.3%; in the test with WM3526 it was 77.8%; in the test on WM3619, 108%; in the test with WM451Lu, 91.4%.

`C[As](C)SC[C@H](NC(=O)CC[C@H](N)C(=O)O)C(=O)NCC(=O)O` [Darinaparsin] + CCCCCCCCCCCC1=C(O)C(=O)C=C(O)C1=O [Embelin] (first compound 0.4 µM, partner dose 1.2 µM): the cell count was found to be 93.6% in the test with WM115; 111% in the test with WM1716; 95.6% with WM1745; 100% in the test with WM3526; 105% with WM3619; 117% in the test with WM451Lu.

As for `Cn1cc(C2=C(c3cn(C4CCN(Cc5ccccn5)CC4)c4ccccc34)C(=O)NC2=O)c2ccccc21` [Enzastaurin] + CC(C)C[C@H](NC(=O)[C@H](Cc1ccccc1)NC(=O)c1cnccn1)B(O)O [Bortezomib] (first compound 0.8 µM, partner dose 0.001 µM), the cell count in the test on WM115 came to 115%; in the test with WM1716 it was 62%; with WM1745, 43.5%; with WM3526 it was 103%; in the test with WM3619, 8.95%; with WM451Lu, 106%.

`N.N.[Cl][Pt][Cl]` [cisplatin] + COc1ccc2c(c1)CCC1C2CCC2(C)C(NCCCCCCN3C(=O)C=CC3=O)CCC12 [U73122] (first compound 1.6 µM, partner dose 0.4 µM): the cell count worked out at 98.7% with WM115; 83.2% in the test with WM1716; 97.9% in the test with WM1745; 80.6% in the test with WM3526; 80.2% with WM3619; 91.4% with WM451Lu.

In the case of `N.N.[Cl][Pt][Cl]` [cisplatin] + CC1(C)NC(=O)N(c2ccc([N+](=O)[O-])c(C(F)(F)F)c2)C1=O [nilutamide] (first compound 1.6 µM, partner dose 1 µM), the cell count in the test on WM115 turned out to be 93.8%; with WM1716, 95%; in the test with WM1745 it was 127%; with WM3526, 92.3%; in the test with WM3619 it was 117%; in the test with WM451Lu, 90%.

`Cn1cc(C2=C(c3cn(C4CCN(Cc5ccccn5)CC4)c4ccccc34)C(=O)NC2=O)c2ccccc21` [Enzastaurin] + COc1cc(N2CCC(N3CCN(C)CC3)CC2)ccc1Nc1ncc(Cl)c(Nc2ccccc2S(=O)(=O)C(C)C)n1 [NVP-TAE684] (first compound 0.8 µM, partner dose 0.08 µM): the cell count in the test on WM115 stood at 99.2%; in the test on WM1716, 108%; in the test with WM1745, 70.1%; with WM3526, 88%; in the test on WM3619, 104%; in the test with WM451Lu, 93.8%.

`C[C@]12O[C@H](C[C@]1(O)CO)n1c3ccccc3c3c4c(c5c6ccccc6n2c5c31)CNC4=O` [Lestaurtinib] + CC(=O)c1c(C)c2cnc(Nc3ccc(N4CCNCC4)cn3)nc2n(C2CCCC2)c1=O [palbociclib] (first compound 0.004 µM, partner dose 0.04 µM): the cell count is 89.1% with WM115; 77.3% with WM1716; 89.6% with WM1745; 83.5% in the test with WM3526; 80.4% in the test with WM3619; 87.2% in the test with WM451Lu.

As to `C[C@]12O[C@H](C[C@]1(O)CO)n1c3ccccc3c3c4c(c5c6ccccc6n2c5c31)CNC4=O` [Lestaurtinib] + O=C(O)[C@@H]1[O][Sb](=[O])([O][Sb]2(=[O])[O][C@H]([C@H](O)CO)[C@H](O)[C@H](C(=O)O)[O]2)[O][C@H]([C@H](O)CO)[C@@H]1O [stibogluconate] (first compound 0.004 µM, partner dose 2 µM), the cell count in the test on WM115 is 104%; in the test with WM1716, 105%; in the test with WM1745 it was 106%; in the test on WM3526 it was 102%; in the test with WM3619 it was 150%; with WM451Lu, 101%.

For the compound `N.N.[Cl][Pt][Cl]` [cisplatin] + Cc1cc(N2CCOCC2)cc2[nH]c(-c3c(NC[C@@H](O)c4cccc(Cl)c4)cc[nH]c3=O)nc12 [BMS536924] (first compound 1.6 µM, partner dose 0.2 µM), the cell count was 89.3% in the test with WM115; 105% in the test with WM1716; 61.8% with WM1745; 88.9% in the test with WM3526; 78.8% with WM3619; 93.8% with WM451Lu.

As for `C[C@]12O[C@H](C[C@]1(O)CO)n1c3ccccc3c3c4c(c5c6ccccc6n2c5c31)CNC4=O` [Lestaurtinib] + CS(=O)(=O)c1ccc(C(=O)Nc2ccc(Cl)c(-c3ccccn3)c2)c(Cl)c1 [vismodegib] (first compound 0.004 µM, partner dose 1 µM), the cell count in the test with WM115 is 91.8%; with WM1716 it was 96.4%; in the test with WM1745, 91.4%; in the test with WM3526 it was 70.8%; in the test with WM3619 it was 106%; in the test on WM451Lu, 101%.

For `Cn1cc(C2=C(c3cn(C4CCN(Cc5ccccn5)CC4)c4ccccc34)C(=O)NC2=O)c2ccccc21` [Enzastaurin] + O=C(Nc1ccccc1)c1cc([N+](=O)[O-])ccc1Cl [GW9662] (first compound 0.8 µM, partner dose 2 µM), the cell count in the test on WM115 was found to be 99.2%; with WM1716 it was 119%; in the test on WM1745, 93.9%; in the test on WM3526, 113%; in the test with WM3619, 96%; in the test on WM451Lu it was 116%.

For `C[C@]12O[C@H](C[C@]1(O)CO)n1c3ccccc3c3c4c(c5c6ccccc6n2c5c31)CNC4=O` [Lestaurtinib] + Cc1cc(SCc2sc(-c3ccc(C(F)(F)F)c(F)c3)nc2C)ccc1OCC(=O)O [GW0742] (first compound 0.004 µM, partner dose 2 µM), the cell count was found to be 114% in the test on WM115; 105% in the test with WM1716; 89.5% in the test on WM1745; 89.4% in the test on WM3526; 97.7% with WM3619; 110% in the test on WM451Lu.

As for `Cn1cc(C2=C(c3cn(C4CCN(Cc5ccccn5)CC4)c4ccccc34)C(=O)NC2=O)c2ccccc21` [Enzastaurin] + O=C(O)c1ccc(-c2c[nH]c3ncc(-c4ccccc4)cc23)cc1C1CCCC1 [GSK650394] (first compound 0.8 µM, partner dose 0.16 µM), the cell count amounted to 112% in the test with WM115; 85.5% in the test on WM1716; 82.7% in the test with WM1745; 93.8% with WM3526; 99.2% in the test on WM3619; 136% with WM451Lu.

Regarding `Cn1cc(C2=C(c3cn(C4CCN(Cc5ccccn5)CC4)c4ccccc34)C(=O)NC2=O)c2ccccc21` [Enzastaurin] + Cn1cncc1[C@@](N)(c1ccc(Cl)cc1)c1ccc2c(c1)c(-c1cccc(Cl)c1)cc(=O)n2C [tipifarnib] (first compound 0.8 µM, partner dose 0.01 µM), the cell count in the test on WM115 was 90.3%; in the test with WM1716, 95.3%; in the test on WM1745, 107%; in the test with WM3526 it was 120%; in the test with WM3619 it was 126%; with WM451Lu, 92%.

Regarding `C[C@]12O[C@H](C[C@]1(O)CO)n1c3ccccc3c3c4c(c5c6ccccc6n2c5c31)CNC4=O` [Lestaurtinib] + Cn1c(=O)n(-c2ccc(C(C)(C)C#N)cc2)c2c3cc(-c4cnc5ccccc5c4)ccc3ncc21 [NVP-BEZ235] (first compound 0.004 µM, partner dose 0.004 µM), the cell count in the test with WM115 is 96.8%; in the test on WM1716, 94.2%; with WM1745 it was 88.9%; with WM3526, 82.3%; with WM3619 it was 88.5%; in the test with WM451Lu it was 92.7%.

As to `C[C@]12O[C@H](C[C@]1(O)CO)n1c3ccccc3c3c4c(c5c6ccccc6n2c5c31)CNC4=O` [Lestaurtinib] + O=C(CCCCCCC(=O)Nc1ccccc1)NO [vorinostat] (first compound 0.004 µM, partner dose 0.08 µM), the cell count in the test with WM115 turned out to be 106%; in the test on WM1716 it was 120%; in the test on WM1745, 113%; in the test on WM3526, 81.6%; with WM3619, 86.4%; in the test with WM451Lu it was 80.8%.
